From the BET-seq Pho4 binding data (Le et al. 2018)
Some of the results follow. The energies were worked out here from pooled read counts, against the library average; single values are noisy.

Molecular target: T1, Pho4 (S. cerevisiae) (UniProt P07270)
T1 sequence: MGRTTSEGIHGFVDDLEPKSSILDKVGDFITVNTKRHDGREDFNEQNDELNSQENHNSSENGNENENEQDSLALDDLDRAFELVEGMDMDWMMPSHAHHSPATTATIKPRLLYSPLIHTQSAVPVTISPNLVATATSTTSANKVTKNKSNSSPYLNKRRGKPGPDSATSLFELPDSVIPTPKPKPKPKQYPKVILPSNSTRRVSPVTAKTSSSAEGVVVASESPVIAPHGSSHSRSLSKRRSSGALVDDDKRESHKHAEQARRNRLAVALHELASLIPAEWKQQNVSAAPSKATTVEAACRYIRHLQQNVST
Experiment: relative binding free energy (BET-seq); higher = weaker binding
Settings: reference: library average

Sequence | relative binding free energy
TGTTTCACGTGGCATA | -0.02 kcal/mol
GTTAACACGTGTATAT | 0.11 kcal/mol
GGTAACACGTGCTTTG | 0.04 kcal/mol
TTGAGCACGTGAAGAA | 0.4 kcal/mol
CGGTGCACGTGGGGAC | -0.17 kcal/mol
ACTATCACGTGGGGTT | -0.01 kcal/mol
TATATCACGTGTCAGT | 0.06 kcal/mol
TGTAACACGTGTTATA | -0.09 kcal/mol
GTCTGCACGTGGGATA | -0.07 kcal/mol
GAGGACACGTGGTTTG | 0.16 kcal/mol
AGACGCACGTGGAGGG | -0.13 kcal/mol
AATTGCACGTGGACTG | -0.02 kcal/mol
CTGGCCACGTGGTGTG | -0.21 kcal/mol
TTTTGCACGTGAGGTC | 0.23 kcal/mol
TTGGCCACGTGGAGTG | 0.04 kcal/mol
AGGGACACGTGTTGTA | 0.03 kcal/mol
GAGTGCACGTGATTTA | 0.09 kcal/mol
TTGACCACGTGTAGTT | 0 kcal/mol
TTTCTCACGTGATGGA | 0.22 kcal/mol
GTGTCCACGTGGTGTG | 0 kcal/mol
TACGTCACGTGGTGTT | 0.11 kcal/mol
GTCAGCACGTGGTGAG | -0.1 kcal/mol
AGTCTCACGTGTTCTT | 0.25 kcal/mol
TAGTGCACGTGTGGTC | 0.1 kcal/mol
TTAGGCACGTGGGCGG | -0.28 kcal/mol
TAGGACACGTGAGAAT | 0.41 kcal/mol

Sequence | relative binding free energy
GAATTCACGTGAGCTT | 0.56 kcal/mol
GAGAGCACGTGGTCTG | -0.07 kcal/mol
TTACGCACGTGTAGGT | -0.15 kcal/mol
CTAGGCACGTGAGAGG | 0.06 kcal/mol
TTAGGCACGTGTGAGA | -0.07 kcal/mol
TAGGTCACGTGCGTAA | -0.02 kcal/mol
GACGGCACGTGTGGAG | 0.09 kcal/mol
TGTGCCACGTGGTTAT | -0.15 kcal/mol
TGGGGCACGTGGTAAA | 0 kcal/mol
TCGGGCACGTGGCATT | -0.14 kcal/mol
TAGGGCACGTGGACTA | -0.02 kcal/mol
GAGCGCACGTGGGTAG | -0.22 kcal/mol
AGTGACACGTGCTGGT | -0.11 kcal/mol
GGAGTCACGTGGGAGA | 0.1 kcal/mol
GAAGGCACGTGCGGTG | -0.11 kcal/mol
GTATACACGTGAGTGT | 0.3 kcal/mol
AGAAGCACGTGTGATA | 0.31 kcal/mol
GTTGACACGTGCGAGT | -0.12 kcal/mol
AAAAGCACGTGGCGGT | -0.17 kcal/mol
AGAAGCACGTGTAATG | 0.01 kcal/mol
CGGAACACGTGAGGTG | 0.27 kcal/mol
TGGGGCACGTGAGAGA | 0.15 kcal/mol
TTGTCCACGTGAATTT | 0.29 kcal/mol
GGGTGCACGTGGCGTT | -0.01 kcal/mol
GTAATCACGTGATATG | 0.29 kcal/mol
AATCTCACGTGGTATG | 0.09 kcal/mol

Sequence | relative binding free energy
TATGTCACGTGAAAAT | 0.3 kcal/mol
TATTGCACGTGCGGGT | -0.04 kcal/mol
TGGTTCACGTGCTCGT | 0.14 kcal/mol
GTAGTCACGTGGGGAG | 0.13 kcal/mol
GGTACCACGTGTGGAT | 0.04 kcal/mol
TTTGTCACGTGTTAGT | 0.14 kcal/mol
TTGGGCACGTGTATGT | -0.01 kcal/mol
GTTGTCACGTGGTTTC | 0.06 kcal/mol
GGAGCCACGTGGCGTG | -0.14 kcal/mol
AAGGTCACGTGTTATT | 0.21 kcal/mol
TACCGCACGTGAGGGT | 0.16 kcal/mol
TGAAACACGTGTTGTA | -0.02 kcal/mol
CAAGTCACGTGTGTGA | 0.06 kcal/mol
TGTAGCACGTGTGGTA | -0.03 kcal/mol
ATTCGCACGTGTTGCT | 0 kcal/mol
TTTGGCACGTGTACAA | -0.03 kcal/mol
TTGGTCACGTGGGCCG | -0.08 kcal/mol
GTAGGCACGTGCTTTT | -0.03 kcal/mol
ATTACCACGTGGTCGG | -0.14 kcal/mol
TTGTCCACGTGTGTTG | 0.02 kcal/mol
TTTCGCACGTGGATGG | -0.01 kcal/mol
TATGCCACGTGGGCGT | -0.25 kcal/mol
GGATACACGTGAGTTA | 0.22 kcal/mol
GGTAGCACGTGTAATG | 0.08 kcal/mol
GTTTTCACGTGTGAGT | 0.4 kcal/mol
AGTTTCACGTGCTGGC | 0.24 kcal/mol

Sequence | relative binding free energy
TGTAGCACGTGGTTGC | 0 kcal/mol
TGTTACACGTGGAACG | 0.23 kcal/mol
GTTTACACGTGGACAT | 0.29 kcal/mol
GGTTGCACGTGGTCGA | -0.03 kcal/mol
TTTAGCACGTGTTGGC | -0.09 kcal/mol
TGGCTCACGTGGCATG | 0.19 kcal/mol
ATTTCCACGTGGGTTG | -0.12 kcal/mol
GGCGGCACGTGGGGCG | -0.19 kcal/mol
TATGGCACGTGAGGCC | 0.21 kcal/mol
GGTTACACGTGTCGAG | 0.17 kcal/mol
TTTTCCACGTGTTTGT | 0.07 kcal/mol
AAGGACACGTGTGTGG | -0.06 kcal/mol
TGGGGCACGTGTGCCA | -0.16 kcal/mol
TAGGCCACGTGGGGCT | -0.28 kcal/mol
GCTGGCACGTGGGTAT | -0.11 kcal/mol
TGCAGCACGTGGGTGA | -0.19 kcal/mol
TCTATCACGTGTAATT | 0.21 kcal/mol
TAGTGCACGTGATCAT | 0 kcal/mol
TGGGACACGTGGCTGG | -0.11 kcal/mol
TGAATCACGTGGCGGG | 0.07 kcal/mol
TTGATCACGTGAAGGA | 0.4 kcal/mol
ATTTACACGTGGGTAC | 0.07 kcal/mol
GGTGGCACGTGTTAAC | 0.03 kcal/mol
GTTGTCACGTGGTAGA | 0 kcal/mol
GATGGCACGTGAATGG | 0.34 kcal/mol
TTAAGCACGTGATGTG | -0.01 kcal/mol

Sequence | relative binding free energy
GGGTGCACGTGACTGA | 0.16 kcal/mol
CAAATCACGTGTTTGG | 0.11 kcal/mol
GTTAGCACGTGTCTTG | 0.07 kcal/mol
AGTCACACGTGAGGGG | 0.32 kcal/mol
GGTGTCACGTGGGTTT | 0.1 kcal/mol
CTAGGCACGTGGGGGA | -0.33 kcal/mol
CTTAGCACGTGGTTGT | -0.14 kcal/mol
GTCATCACGTGGTTTG | 0.16 kcal/mol
TGGGGCACGTGAAAGG | 0.16 kcal/mol
GAAAGCACGTGGGAGG | -0.19 kcal/mol
GTGGTCACGTGCGAGT | 0.11 kcal/mol
ACTAGCACGTGCTTGT | 0.02 kcal/mol
ATGCGCACGTGTGGAA | -0.02 kcal/mol
AAGTTCACGTGTATTC | 0.34 kcal/mol
TTTCACACGTGGATTT | 0.09 kcal/mol
GTTAACACGTGGGAAT | 0.12 kcal/mol
CGTTTCACGTGTTGTG | 0.25 kcal/mol
GCGGTCACGTGTGTCG | 0.35 kcal/mol
TACGGCACGTGGTAAG | -0.13 kcal/mol
TTTGGCACGTGATTTG | -0.09 kcal/mol
GTGGGCACGTGGGGGG | -0.18 kcal/mol
AGTGCCACGTGGTTTA | -0.04 kcal/mol
TGGGGCACGTGACAGC | -0.03 kcal/mol
GTAACCACGTGGGTGA | -0.15 kcal/mol
TTAGTCACGTGCCGTG | 0.03 kcal/mol
TGAAGCACGTGTGGAT | 0.2 kcal/mol

Sequence | relative binding free energy
TGCGTCACGTGTGCAA | 0.15 kcal/mol
GAGCGCACGTGTTAGT | -0.13 kcal/mol
GTTAACACGTGTTTAG | 0.06 kcal/mol
TGGTCCACGTGGGATT | -0.01 kcal/mol
TTGGTCACGTGCGCAG | 0.05 kcal/mol
TGTATCACGTGTCGGG | 0.09 kcal/mol
GTGGCCACGTGTTATA | -0.09 kcal/mol
TGTAGCACGTGGGTAC | -0.21 kcal/mol
TGTTACACGTGGAGGC | 0.12 kcal/mol
TTAGGCACGTGGTATG | -0.19 kcal/mol
GGAGCCACGTGGGGGT | -0.04 kcal/mol
TGGGGCACGTGCTAAT | -0.22 kcal/mol
TGAGGCACGTGGTTCT | -0.13 kcal/mol
TCCTTCACGTGTGTGT | 0.21 kcal/mol
TCTATCACGTGTTTAA | 0.19 kcal/mol
GGAATCACGTGCGGCT | 0.26 kcal/mol
ATATCCACGTGTGGTG | -0.02 kcal/mol
AGGTGCACGTGGGCTA | -0.24 kcal/mol
GTGGCCACGTGGTAGG | -0.03 kcal/mol
CAGGACACGTGTAGGT | -0.02 kcal/mol
TAGTTCACGTGGTTTC | 0.34 kcal/mol
TCGGGCACGTGAAGTG | 0.17 kcal/mol
AGACTCACGTGGATGG | 0.22 kcal/mol
TGACTCACGTGGGATA | 0.13 kcal/mol
GTTTACACGTGGCAGG | 0.14 kcal/mol
AGTGACACGTGCGGTG | -0.11 kcal/mol

Sequence | relative binding free energy
GGTGACACGTGTTCGT | 0.21 kcal/mol
CGTTACACGTGGGTGA | -0.05 kcal/mol
AGGTCCACGTGGATGT | -0.04 kcal/mol
GGTGGCACGTGGTCTT | -0.12 kcal/mol
GGTCACACGTGGGATT | 0.08 kcal/mol
GAGTTCACGTGTTAAT | 0.38 kcal/mol
ATTAGCACGTGCGGGA | -0.08 kcal/mol
CATTACACGTGTGGGT | 0.22 kcal/mol
ATTGGCACGTGGGGTA | -0.21 kcal/mol
AAATTCACGTGTAAAT | 0.38 kcal/mol
GATTTCACGTGAAAGG | 0.41 kcal/mol
CTGGTCACGTGGTGAG | -0.09 kcal/mol
GTTTGCACGTGTAGGA | 0.14 kcal/mol
AAGGGCACGTGTCAGT | -0.08 kcal/mol
GGAGACACGTGAGTTT | 0.39 kcal/mol
TTTCCCACGTGGTGGT | -0.19 kcal/mol
CGTTTCACGTGGGGGG | 0.1 kcal/mol
TAAGTCACGTGTGGCT | 0.13 kcal/mol
CGAGACACGTGTTGTT | -0.03 kcal/mol
ATCTTCACGTGAAGTT | 0.31 kcal/mol
AGTATCACGTGGAGAA | 0.23 kcal/mol
TGGTGCACGTGGAGAT | -0.02 kcal/mol
CGGTGCACGTGAGAGA | 0.29 kcal/mol
ATGGGCACGTGGCTAT | -0.21 kcal/mol
AGGCGCACGTGATGTA | 0.05 kcal/mol
CTGAACACGTGTGAGT | 0.11 kcal/mol

Sequence | relative binding free energy
ATAAACACGTGGGTGG | -0.2 kcal/mol
TAGCGCACGTGGATTG | -0.06 kcal/mol
GTTAACACGTGGGATA | -0.02 kcal/mol
GTGGGCACGTGTGGAG | 0 kcal/mol
CTTTTCACGTGGCATT | 0.21 kcal/mol
TTATGCACGTGTGTGT | 0 kcal/mol
ATATTCACGTGTGGCA | 0.31 kcal/mol
TAGGTCACGTGAATCG | 0.32 kcal/mol
AAGTACACGTGTGGGA | 0.09 kcal/mol
ATTCTCACGTGTTGCT | 0.07 kcal/mol
GTGAGCACGTGGGTTT | -0.14 kcal/mol
TGATCCACGTGGTGTG | -0.17 kcal/mol
AGGTGCACGTGCGGGC | -0.02 kcal/mol
GGAGTCACGTGAAATG | 0.47 kcal/mol
TTGATCACGTGTGAAT | 0.25 kcal/mol
TATAGCACGTGTGAAT | 0.11 kcal/mol
TGAGGCACGTGGCAAT | -0.04 kcal/mol
ATATGCACGTGGGTTC | -0.1 kcal/mol
GGTTGCACGTGTCGTT | 0.2 kcal/mol
TAGAGCACGTGAATGG | 0.14 kcal/mol
ACTAACACGTGGGGGT | -0.23 kcal/mol
TCGTGCACGTGTTGAG | 0.02 kcal/mol
TGTGACACGTGGTCGT | -0.07 kcal/mol
TTGTACACGTGTCAGG | 0.04 kcal/mol
GGTAGCACGTGTAGCT | 0.03 kcal/mol
TTACTCACGTGGTCTT | 0.09 kcal/mol

Sequence | relative binding free energy
ATTGTCACGTGCGGGA | -0.03 kcal/mol
AAAAACACGTGGGTGT | -0.17 kcal/mol
GTCATCACGTGAGGAG | 0.4 kcal/mol
TGTTGCACGTGAATGG | 0.29 kcal/mol
CGAGTCACGTGGTCGG | -0.03 kcal/mol
GAAGGCACGTGTATTG | -0.08 kcal/mol
CGTTACACGTGTAGGG | 0.1 kcal/mol
GCGGACACGTGGATGT | 0.04 kcal/mol
CGTCTCACGTGTAGGT | 0.26 kcal/mol
TGCTGCACGTGCGGTG | 0 kcal/mol
TGTGTCACGTGTTACG | 0.11 kcal/mol
TTGGGCACGTGGGCCA | -0.1 kcal/mol
CGTTCCACGTGGTTTG | 0.06 kcal/mol
TGGGCCACGTGTTATT | 0.12 kcal/mol
AGGTTCACGTGAGTCA | 0.26 kcal/mol
GCGGTCACGTGGGTTG | 0.09 kcal/mol
TATTCCACGTGGGATT | 0.07 kcal/mol
GTGGTCACGTGGCGTA | 0.06 kcal/mol
GCAGTCACGTGGTGTT | 0.01 kcal/mol
GAGCACACGTGCGGGG | 0.08 kcal/mol
TCAATCACGTGGGGTG | 0 kcal/mol
GTGACCACGTGTGTTG | -0.02 kcal/mol
